From patent US20050032185

B1: GST-PDK1 ([…] of human PDK1) (protein)
chain 1: [about 200 residues not shown]
chain 2: DGTAAEPRPGAGSLQHAQPPPQPRKKRPEDFKFGKILGEGSFSTVVLARELATSREYAIKILEKRHIIKENKVPYVTRERDVMSRLDHPFFVKLYFTFQDDEKLYFGLSYAKNGELLKYIRKIGSFDETCTRFYTAEIVSALEYLHGKGIIHRDLKPENILLNEDMHIQITDFGTAKVLSPESKQARANSFVGTAQYVSPELLTEKSACKSSDLWALGCIIYQLVAGLPPFRAGNEYLIFQKIIKLEYDFPEKFFPKARDLVEKLLVLDATKRLGCEEMEGYGPLKAHPFFESVTWENLHQQTPPKLTAYLPAMSEDDEDCYGNYDNLLSQFGCMQVSSSSSSHSLSASDTGLPQRSGSNIEQYIHDLDSNSFELDLQFSEDEKRLLLEKQAGGNPWHQFVENNLILKMGPVDKRKGLFARRRQLLLTEGPHLYYVDPVNKVLKGEIPWSQELRPEAKNFKTFFVHTPNRTYYLMDPSGNAHKWCRKIQEVWRQRYQSHPDAAVQ
B2: GST-PDK1 ([…], full length human PDK1) (protein)
chain 1: [about 200 residues not shown]
chain 2: MARTTSQLYDAVPIQSSVVLCSCPSPSMVRTQTESSTPPGIPGGSRQGPAMDGTAAEPRPGAGSLQHAQPPPQPRKKRPEDFKFGKILGEGSFSTVVLARELATSREYAIKILEKRHIIKENKVPYVTRERDVMSRLDHPFFVKLYFTFQDDEKLYFGLSYAKNGELLKYIRKIGSFDETCTRFYTAEIVSALEYLHGKGIIHRDLKPENILLNEDMHIQITDFGTAKVLSPESKQARANSFVGTAQYVSPELLTEKSACKSSDLWALGCIIYQLVAGLPPFRAGNEYLIFQKIIKLEYDFPEKFFPKARDLVEKLLVLDATKRLGCEEMEGYGPLKAHPFFESVTWENLHQQTPPKLTAYLPAMSEDDEDCYGNYDNLLSQFGCMQVSSSSSSHSLSASDTGLPQRSGSNIEQYIHDLDSNSFELDLQFSEDEKRLLLEKQAGGNPWHQFVENNLILKMGPVDKRKGLFARRRQLLLTEGPHLYYVDPVNKVLKGEIPWSQELRPEAKNFKTFFVHTPNRTYYLMDPSGNAHKWCRKIQEVWRQRYQSHPDAAVQ

Key:
[1] = molecular target: GST-PKBα (full length human protein kinase Bα with N-terminal glutathione S-transferase, from unstimulated 293 cells) [GST: P08515]
[2] = molecular target: GST-ΔPH-PKBα (residues 118-479 of human PKBα, lacking the PH domain), P31749
Chain of GST-ΔPH-PKBα (residues 118-479 of human PKBα, lacking the PH domain), P31749 (P31749 whole entry, looked up, stated change not applied, the tested form may be a part): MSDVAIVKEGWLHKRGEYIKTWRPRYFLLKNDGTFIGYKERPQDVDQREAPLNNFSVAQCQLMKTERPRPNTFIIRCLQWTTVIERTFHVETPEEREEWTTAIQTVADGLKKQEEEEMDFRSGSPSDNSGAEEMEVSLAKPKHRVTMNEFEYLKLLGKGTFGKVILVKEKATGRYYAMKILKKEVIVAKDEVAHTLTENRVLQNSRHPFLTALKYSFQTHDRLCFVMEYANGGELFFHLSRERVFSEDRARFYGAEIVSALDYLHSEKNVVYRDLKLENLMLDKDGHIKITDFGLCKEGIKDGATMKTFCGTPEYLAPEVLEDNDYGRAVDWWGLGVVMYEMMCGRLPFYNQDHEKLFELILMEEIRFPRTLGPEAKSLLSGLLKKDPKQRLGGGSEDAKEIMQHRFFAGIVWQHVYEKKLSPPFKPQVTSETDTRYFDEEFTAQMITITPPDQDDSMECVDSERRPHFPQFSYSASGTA

Protein | increase in GST-PKBα activity at maximal phosphorylation [1] | maximal phosphorylation of GST-PKBα (mol phosphate per mol protein) [1] | specific activity towards GST-PKBα in the presence of PtdIns(3,4,5)P3 [1] | rate of activation of GST-ΔPH-PKBα by PDK1 compared to wild-type GST-PKBα [2]
B1 | paralleled by a 35 fold increase in activity | the phosphorylation of GST-PKBα reached 0.75 mol phosphate per mol protein | GST-PDK1 (residues 52 to 556, 78 000 U/mg) | 
B2 |  |  | GST-PDK1 (residues 1 to 556, 89 000 U/mg) | the rate of activation was reduced about 20-fold compared to wild-type GST-PKBα
